According to patent USRE50631E1, “ROR1 antibody immunoconjugates” (VelosBio Inc., priority 2017, dated 2025):

What was measured:
ROR1 on MDA-MB-231 cells = target: T1, ROR1 on MDA-MB-231 cells (Homo sapiens, UniProt Q01973); test: Binding to ROR1-positive MDA-MB-231 cells (flow cytometry receptor binding assay); settings: 20 minutes on ice, PE secondary antibody
T1 construct: the MDA-MB-231 cell line, from triple negative breast cancer, is an adherent cell line; host or cells: MDA-MB-231 (human triple negative breast cancer)
Procedure: The binding to tumor cells by antibodies Ab1 and 4A5, as well as ADC constructs derived from those antibodies (ADC-A and ADC-T), was evaluated. First, the binding of Ab1 to two ROR1-positive human tumor cell lines representing different cancer types was tested. The Jeko-1 cell line, from mantle cell lymphoma, is a suspension cell line, while the MDA-MB-231 cell line, from triple negative breast cancer, is an adherent cell line. The cell lines have different levels of ROR1 expression, with Jeko-1 cells displaying about 13507 cell surface copies and the MDA-MB-231 cells displaying about 21015 cell surface copies. The Jeko-1 (ATCC Cat. No. CRL-3006) and MDA-MB-231 (ATCC Cat. No. […]) cell lines were purchased from the American Type Culture Collection and were maintained according to the ATCC recommendations.
Jeko-1 cells (FIG. 2A) or MDA-MB-231 cells (FIG. 2B) were incubated with 0, 1, 10, 100, or 1000 ng/mL of Ab1 for 20 minutes on ice. After washing off unbound antibody, the cells were incubated with secondary anti-human IgG antibody labeled with phycoerythrin (PE) for an additional 20 minutes. The amount of PE fluorescence was measured using the BDFACS Verse analyzer and FlowJo V10 software. The PE signal for the highest concentration was used as the maximal binding signal to calculate the % maximal binding. EC50 was calculated using GraphPad Prism 7. […]

MDA-MB-231 cells = test: Internalization by MDA-MB-231 cells (pulse-chase flow cytometry); format: cell-based, human; settings: MDA-MB-231 cells
Procedure: Multiple methods were used to determine antibody internalization. In one approach, internalization was measured using a pulse-chase methodology that quantitates non-internalized, cell surface antibody at 15, 30, 60, 120, and 240 minutes using flow cytometry. Jeko-1 cells were grown and harvested prior to confluency, washed with cold PBS and resuspended at 1×10^7 in cold FACS buffer (PBS+2% FBS-Fisher/Gibco Cat. No. 16140071). 1×10^6 cells were added to microcentrifuge tubes or wells. Internalization of Ab1 and ADC constructs by the cells was determined at saturating antibody concentrations, using 30 μg/ml for Jeko-1 cells and 100 μg/mL for MDA-MB-231 cells. […]
Cells and antibody were incubated on ice for 20 minutes, spun at 300×g for 4 minutes, washed twice with 200 μL of FACS buffer, and resuspended in 100 μL of FACS buffer. […] A time course for antibody internalization was generated for each test article as described above, after which antibody remaining on the cell surface was detected using a PE-labeled secondary antibody. […] The median fluorescent intensity (MFI) was quantitated and the degree of receptor internalization was determined using the amount of the antibody or ADC present at each time point when compared to the amount present at time=0. […]

Mec-vector = test: Cytotoxicity in vitro (CellTiter-Glo viability), Mec-vector; settings: read-out: EC50 (nM), cytotoxicity in vitro; Mec-vector (CLL), 72 hours
Procedure: (§1) Cells were cultured in log phase growth and distributed into 96-well plates. Each cell line was plated at a slightly different cell density, ranging from 5×10^3 to 50×10^4 cells/well. Cells in duplicate were incubated with 3-fold serial dilution of a particular immunoconjugate (10, 3.33, 1.11, 0.37, 0.12, 0.041, 0.014, and 0.0045 μM) for 72 hours at 37° C. and 5% CO2. After treatment, cells were incubated with an equal volume of CellTiter-Glo® reagent (Promega Inc.) for 15 minutes at room temperature and viability was determined by a luminometer. Curves and EC50 values were generated in GraphPad Prism using a sigmoidal dose response non-linear regression fit.
(§2) Cells were grown and distributed into 96-well plates as described in Example 5. Cells in duplicate were incubated with 3-fold serial dilution of a particular immunoconjugate (660, 220, 73.3, 24.4, 8.14, 2.71, 0.91, and 0.3 nM) for 72 hours at 37° C. and 5% CO2. In some experiments, cells were incubated with an immunoconjugate for 96 hours instead of 72 hours (values highlighted with “*”). After treatment, cell viability was determined as described in Example 5. Cell surface ROR1 expression was assessed by quantitative flow cytometry and ROR1 expression was characterized as MFI>30 or MFI<30 (MFI: mean fluorescent intensity).
The MEC1 cell line, which is derived from B-chronic lymphocytic leukemia in prolymphocytoid transformation, was transfected with either an expression vector encoding human ROR1 or a control vector, and stable cell lines were created using selection media containing G418.

Mino = test: Cytotoxicity in vitro (CellTiter-Glo viability), Mino; format: cell-based, human; settings: Mino (MCL)
MDA-MB-468 = test: Cytotoxicity in vitro (CellTiter-Glo viability), MDA-MB-468; settings: read-out: EC50 (nM), cytotoxicity in vitro; MDA-MB-468 (TNBC), 96 hours (values marked *)
Procedure: ROR1 binding by these conjugates was tested in cell culture to define the potency of various linker-cytotoxic agent combinations. Three different types of cancer cell lines were tested: B-lymphoma cell-lines TMD-8, HBL-1, and DOHH2; triple negative breast cancer cell lines HCC1187, MDA-MB-468, Bt549; and ovarian cancer cell lines A2008, TOV112D, JHOM1, and SKOvr3.
as §1, §2

T1 sequence (Q01973 30-937): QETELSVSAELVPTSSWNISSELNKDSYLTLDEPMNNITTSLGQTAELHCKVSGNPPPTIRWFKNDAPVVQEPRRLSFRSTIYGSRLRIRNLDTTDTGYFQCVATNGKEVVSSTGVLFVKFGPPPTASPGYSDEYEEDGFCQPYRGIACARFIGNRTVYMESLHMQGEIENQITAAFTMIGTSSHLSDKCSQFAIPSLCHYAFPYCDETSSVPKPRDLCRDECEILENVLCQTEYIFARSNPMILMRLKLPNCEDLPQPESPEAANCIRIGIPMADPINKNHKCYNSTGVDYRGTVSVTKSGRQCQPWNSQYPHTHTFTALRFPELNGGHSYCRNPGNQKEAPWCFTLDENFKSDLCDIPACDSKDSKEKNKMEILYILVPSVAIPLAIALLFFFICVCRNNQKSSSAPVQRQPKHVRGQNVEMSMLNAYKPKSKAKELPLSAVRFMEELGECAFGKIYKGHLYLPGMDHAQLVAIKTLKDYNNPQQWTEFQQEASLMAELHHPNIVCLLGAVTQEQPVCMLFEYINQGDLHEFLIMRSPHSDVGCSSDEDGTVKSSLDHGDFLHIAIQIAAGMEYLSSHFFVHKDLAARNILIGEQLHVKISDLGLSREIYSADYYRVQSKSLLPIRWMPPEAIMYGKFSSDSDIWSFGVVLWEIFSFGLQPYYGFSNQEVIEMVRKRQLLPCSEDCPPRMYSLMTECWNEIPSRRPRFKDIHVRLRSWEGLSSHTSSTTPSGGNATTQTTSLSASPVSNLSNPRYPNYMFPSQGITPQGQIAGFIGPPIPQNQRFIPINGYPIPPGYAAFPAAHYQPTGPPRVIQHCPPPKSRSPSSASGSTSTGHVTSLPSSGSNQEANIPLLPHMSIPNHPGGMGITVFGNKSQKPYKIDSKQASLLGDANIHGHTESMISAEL

B1: ADC-A: Ab1 conjugated via MAL (mc)-VC-PAB linker to MMAE (conjugate)
heavy: QVQLQESGPGLVKPSQTLSLTCTVSGYAFTAYNIHWVRQAPGQGLEWMGSFDPYDGGSSYNQKFKDRLTISKDTSKNQVVLTMTNMDPVDTATYYCARGWYYFDYWGHGTLVTVSS[skipping human IgG1 constant region]
light: DIVMTQTPLSLPVTPGEPASISCRASKSISKYLAWYQQKPGQAPRLLIYSGSTLQSGIPPRFSGSGYGTDFTLTINNIESEDAAYYFCQQHDESPYTFGEGTKVEIKRTVAAPSVFIFPPSDEQLKSGTASVVCLLNNFYPREAKVQWKVDNALQSGNSQESVTEQDSKDSTYSLSSTLTLSKADYEKHKVYACEVTHQGLSSPVTKSFNRGEC
EC50 of binding to cells (ROR1 on MDA-MB-231 cells): 48.5 ng/mL
internalization compared with Ab1 (MDA-MB-231 cells): did not negatively impact binding or internalization
EC50 (Mec-vector): 558 nM
EC50 (Mino; 72 hours): 19.5 nM
EC50 (Mino; 96 hours (values marked *)): 27.7 nM
EC50 (MDA-MB-468): 21.7 nM
